In all, about 150,000 compounds went through this assay and about 540 (0.36%) showed an effect of 50% or more. The list shows a part of the results.
Tested on: Plasmodium falciparum
Test: Primary screen in NF54 nanoGlo assay, in single point, at 2uM, 72h; a lower Z score goes with more inhibition
Assay type: functional, Erythrocyte
Details: timepoint 72 hour

| Structure (SMILES) | % Inhibition | Z score |
| --- | --- | --- |
| N#CC1(NC(=O)c2ccc3c(c2)OCO3)CCCCC1 | 3% | -0.67 |
| O=S(=O)(CC1CCCC1(F)F)NC1COCc2ccccc21 (stereo not given) | 2% | -0.31 |
| CCOCc1nnc2n1CC(C)(C)CC2 | 3% | -0.43 |
| O=C(c1cn[nH]c1)N1CCN(c2ccccn2)CC1 | 15% | -1.98 |
| CCc1nc(CN2CCC[C@@]3(CO)CN(c4cnccn4)CC[C@H]23)no1 | -1% | 0.22 |
| C[C@@H](CCc1cccn1C)NC(=O)NCCS(C)(=O)=O | -5% | 0.68 |
| O=C(Nc1ccccc1)N1CCCN(c2nc3cc(Cl)ccc3n3cccc23)CC1 | 6% | -0.99 |
| CN(Cc1cc(F)c(F)c(F)c1)C(=O)Nc1ccncc1F | -2% | 0.26 |
| Cc1cc(C)c(CNCc2nc(-c3cccs3)n[nH]2)cc1C | -9% | 1.03 |
| CCN1C[C@H](CN(C)C(=O)c2ccc(COC)cc2)Oc2ccccc21 | -1% | 0.21 |
| C=C(C)CN1CCC(N(C)C(=O)OC(C)(C)C)CC1 | -8% | 1.11 |
| CCCS(=O)(=O)NCCc1cccc(F)c1F | 4% | -0.69 |
| CC(C)n1cc(Br)cc1C(=O)N[C@@H](C)CO | -9% | 0.94 |
| O=C(NC1Cc2ccccc2C1)c1ccc([C@H]2CCCNC2)cc1 | -10% | 1.81 |
| COCC[C@](C)(O)CNC(=O)c1ccsc1 | -7% | 0.77 |
| C[C@@H](CCc1ccco1)n1cnc(-c2ccccc2)c1C1CC1 | -3% | 0.55 |
| Cc1noc([C@]23CN(Cc4cccc(C(=O)O)c4)CC[C@H]2CN(Cc2ccccc2)C3)n1 | -6% | 0.83 |
| CCN1CCN(CCC(=O)N2CCc3cccc(NC(=O)OC(C)(C)C)c32)CC1 | -5% | 0.87 |
| Cc1ccc(C)c(NC[C@H]2CCCN2)c1 | -9% | 1.34 |
| COc1cc(Cl)ccc1C(=O)N1CC(F)(F)C[C@H]1C(=O)N1CCc2ccccc2C1 | -16% | 2.71 |
| CN(Cc1ccc(F)cc1)c1ccc(OCC(=O)N2CCOCC2)nn1 | -4% | 0.54 |
| CC[C@@]1(C)CCCN(C(=O)C(C)(C)CN)CC1 | -5% | 0.6 |
| COC(=O)[C@H]1CN(S(=O)(=O)c2ccc(Cl)cc2)C[C@@H](C)O1 | 7% | -0.8 |
| O=S(=O)(Cc1ccccc1)NCCn1ccc(-c2cnccn2)n1 | 18% | -2.26 |
| CC1(C)C[C@@H]1NC(=O)c1ccnc2[nH]cnc12 | 3% | -0.47 |
| COC[C@H]1CCCN1C(=O)Nc1ccccc1OCCOc1ccccc1 | 7% | -0.94 |
| Cc1ccc(-c2nc(CN3CC[C@]4(CCCO4)CCC3=O)c(C)o2)cc1 | 3% | -0.62 |
| Cc1csc(NC(=O)N2CCCC[C@H]2c2nc(-c3ccccc3)c[nH]2)n1 | -11% | 1.14 |

| Structure (SMILES) | % Inhibition | Z score |
| --- | --- | --- |
| Cc1noc(C)c1CN(C)Cc1nnc(C(C)C)o1 | -11% | 1.37 |
| CC1CN(CC(C)(C)O)CCN1C(=O)NCC1Cc2ccccc21 (stereo not given) | 12% | -1.62 |
| CC1(C(=O)O)CCN(S(=O)(=O)c2csc3ccccc23)CC1 | -8% | 0.97 |
| O=C(Nc1[nH]c(=O)ncc1F)c1cc(F)c(F)cc1Br | 91% | -7.85 |
| CC(C)Cc1cc(CNC(=O)c2ccc(N3CC(=O)NC3=O)cc2)on1 | -15% | 3.08 |
| CCc1nc(-c2cccc(NC(=O)c3ccc(NC(C)=O)cc3)c2)no1 | -22% | 3.77 |
| CC1(C)CN(c2nnc(Cc3ccccc3)o2)CCO1 | 0% | 0.03 |
| Clc1cccc(N2CCN(c3nccn4nc(-c5ccccc5)cc34)CC2)c1 | 4% | -0.64 |
| O=C1C[C@H](C(=O)NC2CCN(Cc3cccnc3)CC2)C2(CCCC2)O1 | -11% | 1.06 |
| Cc1[nH]c(-c2ccc(F)cc2)cc1C(=O)N1CCN(Cc2ccccc2)CC1 | -9% | 1.7 |
| Cn1cncc1C(=O)N1CCCCC[C@@H]1CC(=O)c1ccccc1 | -11% | 1.5 |
| O=C(c1ccc2c(c1)CCC(=O)N2Cc1ccccc1)N1CCN(c2ccccc2F)CC1 | -5% | 0.84 |
| CC(C)Cc1cc(C(=O)N2CC(OCc3ccc(F)cc3)C2)on1 | -1% | 0.2 |
| c1cncc(-c2noc(CN3CCC(OC[C@H]4CCCO4)CC3)n2)c1 | -11% | 1.55 |
| COC[C@H]1CCCN1Cc1cccc(C(=O)Nc2cnccn2)c1 | 10% | -1.43 |
| O=C(OCc1noc(C2CC2)n1)c1ccccc1CN1CCOCC1 | -11% | 0.99 |
| Cc1nn(CCN2CCCCC2)c(C)c1CCO | -8% | 1.13 |
| CC[C@H]1CCN1S(=O)(=O)C1CCC(C(F)(F)F)CC1 (stereo not given in full) | -8% | 0.72 |
| CCOC(=O)c1n[nH]cc1-c1c(-c2ccccc2)ncn1CCc1c[nH]cn1 | -7% | 0.81 |
| O=C(Cc1n[nH]c(=O)c2ccccc12)N[C@H](c1ccccc1)C1CC1 | -2% | 0.42 |
| Cc1cn2nc(C(=O)N3CCC(NC(=O)c4ccoc4)CC3)cc2c(=O)[nH]1 | -2% | 0.31 |
| O=C(CNC(=O)OCc1ccccc1)N[C@H]1CCCCNC1=O | 2% | -0.29 |
| CCn1c(C)nc2cc(NS(=O)(=O)c3ccccc3)cc(C(=O)N[C@@H](C)Cc3cccs3)c21 | -7% | 0.85 |
| COc1ccc(Oc2ccc(Cl)cc2NC(=O)c2c(C)oc(C)c2Br)cc1 | 10% | -1.61 |
| O[C@H](COc1ccc(Cl)cc1CN1CCC1)CN1CCCCCC1 | -4% | 0.59 |
| O=C(O)c1cccc(CNCc2ccc3nsnc3c2)n1 | -7% | 1.05 |
| COC[C@H](C)NC(=O)c1ccc(Br)cc1F | -11% | 1.75 |

Reference: ChEMBL document CHEMBL4888484, “Replenishing the malaria drug discovery pipeline: Screening and hit evaluation of the MMV Hit Generation Library 1 (HGL1) against asexual blood stage Plasmodium falciparum ,using a nano luciferase reporter read-out” (2022)
